Test results: a collection of fitness landscapes (doi:10.1126/science.1257360)
Some of the results follow.

B1: PhoQ; a variant is named by its letters at X, in order, P23837 (parent)
chain: MKKLLRLFFPLSLRVRFLLATAAVVLVLSLAYGMVALIGYSVSFDKTTFRLLRGESNLFYTLAKWENNKLHVELPENIDKQSPTMTLIYDENGQLLWAQRDVPWLMKMIQPDWLKSNGFHEIEADVNDTSLLLSGDHSIQQQLQEVREDDDDAEMTHSVAVNVYPATSRMPKLTIVVVDTIPVELKSSYMVWSWFIYVLSANLLLVIPLLWVAAWWSLRPIEALAKEVRELEEHNRELLNPATTRELTSLVRNLNRLLKSERERYDKYRTTLTDLTHSLKTPLXXLQXXLRSLRSEKMSVSDAEPVMLEQISRISQQIGYYLHRASMRGGTLLSRELHPVAPLLDNLTSALNKVYQRKGVNISLDISPEISFVGEQNDFVEVMGNVLDNACKYCLEFVEISARQTDEHLYIVVEDDGPGIPLSKREVIFDRGQRVDTLRPGQGVGLAVAREITEQYEGKIVAGESMLGGARMEVIFGRQHSAPKDE

Variants of: B1
Test: enrichment ratio after two sorts for PhoP signalling (ratio (wild type AVST 3.29)); higher = more functional
Conditions: with PhoP (E. coli)

| Variant | enrichment ratio |
| --- | --- |
| PPKE | ≤ 0.25 |
| HNTR | ≤ 0.25 |
| NHLG | ≤ 0.25 |
| DPGD | ≤ 0.25 |
| LCIC | ≤ 0.25 |
| GDAL | ≤ 0.25 |
| FPSP | ≤ 0.25 |
| FPGV | ≤ 0.25 |
| PHGF | ≤ 0.25 |
| IFCT | ≤ 0.25 |
| ANVG | 2.2 |
| LWYT | ≤ 0.25 |
| AYKC | ≤ 0.25 |
| NVKG | ≤ 0.25 |
| GAFP | ≤ 0.25 |
| YYDW | ≤ 0.25 |
| ATTF | 18.8 |
| WCMG | ≤ 0.25 |
| DWIA | ≤ 0.25 |
| DICH | ≤ 0.25 |
| KVMD | ≤ 0.25 |

| Variant | enrichment ratio |
| --- | --- |
| RTLV | 0.476 |
| LYMQ | ≤ 0.25 |
| NKIG | ≤ 0.25 |
| QENI | ≤ 0.25 |
| EKCR | ≤ 0.25 |
| MYRY | ≤ 0.25 |
| PNAR | ≤ 0.25 |
| AVGV | ≤ 0.25 |
| TYVS | ≤ 0.25 |
| QAPT | ≤ 0.25 |
| PCSK | ≤ 0.25 |
| QSAD | ≤ 0.25 |
| ITSH | ≤ 0.25 |
| FGKV | ≤ 0.25 |
| YWTY | 0.554 |
| RDNV | ≤ 0.25 |
| PKSN | ≤ 0.25 |
| DYQH | ≤ 0.25 |
| PWGY | ≤ 0.25 |
| HGAP | ≤ 0.25 |
| QKIG | ≤ 0.25 |

| Variant | enrichment ratio |
| --- | --- |
| QSGV | 3.83 |
| LGWC | ≤ 0.25 |
| AETC | 36.7 |
| INPM | ≤ 0.25 |
| FIME | ≤ 0.25 |
| IGFA | ≤ 0.25 |
| MRNF | ≤ 0.25 |
| LSCM | ≤ 0.25 |
| RLGD | ≤ 0.25 |
| LGQA | ≤ 0.25 |
| DTNK | ≤ 0.25 |
| NGTT | ≤ 0.25 |
| SMWY | ≤ 0.25 |
| RMNR | ≤ 0.25 |
| DLCW | ≤ 0.25 |
| NHEH | ≤ 0.25 |
| ICYV | ≤ 0.25 |
| GLIP | ≤ 0.25 |
| VPKR | ≤ 0.25 |
| MYMG | ≤ 0.25 |
| NNNC | ≤ 0.25 |

| Variant | enrichment ratio |
| --- | --- |
| GYVR | ≤ 0.25 |
| FKLS | ≤ 0.25 |
| RQAP | ≤ 0.25 |
| NLPT | ≤ 0.25 |
| LGIH | ≤ 0.25 |
| RWQY | ≤ 0.25 |
| FQCC | ≤ 0.25 |
| NIFF | ≤ 0.25 |
| YFTL | ≤ 0.25 |
| GRNV | ≤ 0.25 |
| DEHA | ≤ 0.25 |
| IWTR | ≤ 0.25 |
| VTEQ | ≤ 0.25 |
| FRYK | ≤ 0.25 |
| AWHS | ≤ 0.25 |
| FWQT | ≤ 0.25 |
| EFPF | ≤ 0.25 |
| GYML | ≤ 0.25 |
| SIFY | ≤ 0.25 |
| RQSP | ≤ 0.25 |
| SSHR | ≤ 0.25 |
